Reference: patent US20210340207A1 (Merck Sharp & Dohme, published 2021)
Substitutions are numbered along the chain they refer to.

T1: Human IL-2Rα (Table 7A) (human, UniProt P01589 22-213, limits assumed)
T1 sequence (looked up): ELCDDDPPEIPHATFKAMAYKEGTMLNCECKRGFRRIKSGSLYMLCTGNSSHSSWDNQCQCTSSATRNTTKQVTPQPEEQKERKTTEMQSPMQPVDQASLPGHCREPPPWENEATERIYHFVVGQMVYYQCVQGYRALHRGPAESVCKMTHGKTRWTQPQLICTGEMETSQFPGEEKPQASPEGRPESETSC

T2: human IL-2Rβγc (on DERL-7 cells, U2OS IL2RB/IL2RG cells, CD25 knockout Kit225-STAT5 cells, primary CD8+ CTLs) (human, UniProt P14784 27-551; P31785 23-369)
T2 sequence (looked up) 1: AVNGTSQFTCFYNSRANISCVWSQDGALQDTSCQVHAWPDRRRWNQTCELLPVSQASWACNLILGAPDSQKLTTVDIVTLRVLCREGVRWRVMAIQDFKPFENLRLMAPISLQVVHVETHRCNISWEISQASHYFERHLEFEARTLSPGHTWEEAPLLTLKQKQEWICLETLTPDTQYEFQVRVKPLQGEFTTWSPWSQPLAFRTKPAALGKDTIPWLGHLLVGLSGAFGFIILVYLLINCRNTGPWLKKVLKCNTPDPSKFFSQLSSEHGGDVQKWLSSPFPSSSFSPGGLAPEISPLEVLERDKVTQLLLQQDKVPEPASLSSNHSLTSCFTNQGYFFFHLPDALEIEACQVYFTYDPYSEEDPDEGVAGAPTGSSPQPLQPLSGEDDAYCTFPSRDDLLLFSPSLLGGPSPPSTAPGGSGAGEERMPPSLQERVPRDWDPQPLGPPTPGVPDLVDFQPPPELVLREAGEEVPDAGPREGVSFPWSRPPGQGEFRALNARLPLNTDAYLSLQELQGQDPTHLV
T2 sequence (looked up) 2: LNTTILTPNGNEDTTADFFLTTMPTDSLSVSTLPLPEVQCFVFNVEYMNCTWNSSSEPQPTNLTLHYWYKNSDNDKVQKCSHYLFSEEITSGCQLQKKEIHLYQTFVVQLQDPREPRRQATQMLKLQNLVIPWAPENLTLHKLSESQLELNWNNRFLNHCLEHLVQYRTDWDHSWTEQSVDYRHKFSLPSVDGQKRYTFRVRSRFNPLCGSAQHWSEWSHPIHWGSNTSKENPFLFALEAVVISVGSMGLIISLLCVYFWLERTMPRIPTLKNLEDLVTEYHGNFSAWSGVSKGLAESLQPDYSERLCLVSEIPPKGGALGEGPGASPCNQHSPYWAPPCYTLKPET

T3: human IL-2Rαβγc (on Kit225-STAT5 reporter cells, NK-92 cells, primary Treg cells) (human, UniProt P01589 22-272; P14784 27-551; P31785 23-369)
T3 sequence (looked up) 1: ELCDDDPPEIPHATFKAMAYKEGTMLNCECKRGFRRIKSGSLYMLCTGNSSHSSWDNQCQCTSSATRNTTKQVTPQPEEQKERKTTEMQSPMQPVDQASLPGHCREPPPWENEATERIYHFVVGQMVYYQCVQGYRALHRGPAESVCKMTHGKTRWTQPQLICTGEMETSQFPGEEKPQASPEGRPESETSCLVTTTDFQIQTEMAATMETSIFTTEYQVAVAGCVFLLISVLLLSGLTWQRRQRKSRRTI
T3 sequence (looked up) 2: T2 sequence (looked up) 1
T3 sequence (looked up) 3: T2 sequence (looked up) 2

T4: Cynomolgus IL-2Rα, Fc tag (Table 10) (cynomolgus monkey, UniProt H6WS54 22-213)
T4 construct: not shown: Fc tag (tag cell printed once at r10)
T4 sequence: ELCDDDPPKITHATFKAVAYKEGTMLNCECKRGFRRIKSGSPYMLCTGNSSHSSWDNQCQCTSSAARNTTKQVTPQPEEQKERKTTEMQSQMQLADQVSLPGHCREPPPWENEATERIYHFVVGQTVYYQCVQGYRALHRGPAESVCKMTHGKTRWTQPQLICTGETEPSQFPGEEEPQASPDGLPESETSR

T5: Human IL-2Rα, Fc tag (Table 10) (human, UniProt P01589 22-213, limits assumed)
T5 construct: also called IL-2R alpha Human Fc; not shown: Fc tag
T5 sequence (looked up): T1 sequence (looked up)

T6: Rhesus IL-2Rα, Fc tag (Table 10) (rhesus monkey, UniProt Q5MNY4 22-213, limits assumed)
T6 construct: not shown: Fc tag (tag cell printed once at r10)
T6 sequence (looked up): T4 sequence with T126M, V146I

B1: Ald-6HIS (ligand)
chain: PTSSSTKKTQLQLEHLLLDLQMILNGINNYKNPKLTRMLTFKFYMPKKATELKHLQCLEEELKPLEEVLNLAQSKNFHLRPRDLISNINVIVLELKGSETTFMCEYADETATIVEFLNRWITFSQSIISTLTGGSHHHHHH
notes: also called aldesleukin with carboxyl-terminus HIS6-tag linked via a Gly-Gly-Ser linker
B2: Aldesleukin (DesA1_IL-2_C124S) (ligand)
chain: not shown

What was measured:
[1] = molecular target: T1, Human IL-2Rα (Table 7A); test: SPR (Biacore T200)
[2] = molecular target: T2, human IL-2Rβγc (on DERL-7 cells, U2OS …); test: cell-based or functional assay
[3] = molecular target: T3, human IL-2Rαβγc (on Kit225-STAT5 …); test: cell-based or functional assay
[4] = molecular target: T4, Cynomolgus IL-2Rα, Fc tag (Table 10); test: SPR (Biacore T200), receptor captured on anti-hu Fc surface
Procedure: (§1) A Surface Plasmon Resonance (SPR) assay on a Biacore T200 (GE Healthcare) instrument was used to determine the monovalent affinities of pegylated aldesleukin variants against polyhistidine-tagged or Fc-tagged IL-2 Receptors. Biacore T200 Evaluation Software was used to fit each titration series to a 1:1 binding model or steady state affinity. The association (kₒₙ, M⁻¹ s⁻¹) and dissociation (koff, s⁻¹) rate constants were determined for each set of titrations and used to calculate the dissociation constant, KD=koff/kₒₙ, of each sample against each receptor. koff/kₒₙ values are not reported herein.
(§2) To measure the affinity of CON1 and aldesleukin for IL-2R subunits, receptors were captured on either an anti-histidine or anti-hu Fc antibody surface. […] CON1 has a six-fold lower affinity for Human and Cynomolgus/Rhesus IL-2-Rβ than aldesleukin.

[5] = molecular target: T5, Human IL-2Rα, Fc tag (Table 10); test: as above
Procedure: as §1, §2

[6] = molecular target: T6, Rhesus IL-2Rα, Fc tag (Table 10); test: as above
Procedure: as §1, §2

koff [1] [s⁻¹]	kon [1] [M⁻¹ s⁻¹]	U2OS B/BG EC50 Fold Change [2] [fold]	U2OS B/BG bridging cell assay EC50 [2] [nM]	NK-92 EC50 Fold Change [3] [fold]	NK-92 cell assay EC50 [3] [nM]	KD/KD (human) [4] [ratio]	Kd [4] [nM]	KD/KD (human) [5] [ratio]	Kd [5] [nM]	KD/KD (human) [6] [ratio]	Kd [6] [nM]	Binder
0.18	1.2e+06	1	0.159	1	0.007							B1
						0.6	12	1	18	0.7	13	B2
